Data taken from patent US4251524A (priority 1976, dated 1981).
≈ marks a conversion by molar mass, not a printed value.

Assays:
Assay in all cases: microbe, parasite or virus in culture
E. coli A 261 = conditions: Escherichia coli, A261, 24 h, read-out: minimum inhibitory concentration (MIC)
Method: (§1) In addition, the compound 7-methoxy-7-[D-α-[(2-oxo-3-furfurylideneamino-imidazolidin-1-yl)-carbonylamino]-phenylacetamido]-3-acetoxymethyl-ceph-3-em-4-carboxylic acid was compared with the commercial product Cefazolin in the agar dilution test using OXOID DST agar as the growth medium. In this comparison, the substances were diluted in liquid agar in two steps; after the agar had solidified, the bacteria were applied to the agar surface, using a multiple inoculation apparatus and the plates were incubated at 37° C. for 24 hours. After 24 hours, the concentration at which no colony formation took place was read as the minimum inhibitory concentration (MIC).

E. coli F 14 = conditions: Escherichia coli, F14, 24 h, read-out: minimum inhibitory concentration (MIC)
Method: as §1

E. coli T 7 = conditions: Escherichia coli, T7, 24 h, read-out: minimum inhibitory concentration (MIC)
Method: as §1

[1] = system: Klebsiella pneumoniae 1852; conditions: Klebsiella pneumoniae, 1852, 24 h, read-out: minimum inhibitory concentration (MIC)
Method: as §1

[2] = system: Klebsiella pneumoniae 57 US; conditions: 24 h, read-out: minimum inhibitory concentration (MIC)
Method: as §1

Proteus vulgaris 1017 = conditions: Proteus vulgaris, 1017, 24 h, read-out: minimum inhibitory concentration (MIC)
Method: as §1

Structure (SMILES) | MIC (E. coli A 261) [µg/mL] | MIC (E. coli F 14) [µg/mL] | MIC (E. coli T 7) [µg/mL] | MIC [1] [µg/mL] | MIC [2] [µg/mL] | MIC (Proteus vulgaris 1017) [µg/mL]
COC1(NC(=O)[C@H](NC(=O)N2CCN(N=Cc3ccco3)C2=O)c2ccccc2)C(=O)N2C(C(=O)O)=C(COC(C)=O)CS[C@@H]21 (stereo partly drawn) [Example 36.5, 7-methoxy-7-[D-α-[(2-oxo-3-furfurylideneamino-imidazolidin-1-yl)-carbonylamino]-phenylacetamido]-3-acetoxymethyl-ceph-3-em-4-carboxylic acid] | ≤ 0.25 | 4 (≈ 6.24 µM) | ≤ 0.25 | 1 (≈ 1.56 µM) | 1 (≈ 1.56 µM) | 16 (≈ 25 µM)
Cc1nnc(SCC2=C(C(=O)O)N3C(=O)[C@@H](NC(=O)Cn4cnnn4)[C@H]3SC2)s1 [Cefazolin, reference compound] | 4 (≈ 8.8 µM) | 16 (≈ 35.2 µM) | 16 (≈ 35.2 µM) | 16 (≈ 35.2 µM) | 4 (≈ 8.8 µM) | > 256
